From the supplement of paper PMC4967469
Lines with a small IC50 respond at low doses; a limit (>, <) means that the fit lies beyond the doses tested. AUC, from the same fit, is the share of area under the viability curve across the 256-fold dose range; the more sensitive the line, the further below 1. For some assays here: An inferred top dose was derived from the fitted curves, not read from the paper. For some assays here: Drugs with an entry number were screened twice under separate entries, and the two screens often disagree.

Columns and labels:
Experiment in all cases: Viability of human cancer cell lines after 72 h of drug (GDSC screen)
Docetaxel = compound: CC(=O)O[C@@]12CO[C@@H]1C[C@H](O)[C@@]1(C)C(=O)[C@H](O)C3=C(C)[C@@H](OC(=O)[C@H](O)[C@@H](NC(=O)OC(C)(C)C)c4ccccc4)C[C@@](O)([C@@H](OC(=O)c4ccccc4)[C@H]21)C3(C)C [Docetaxel]; conditions: top dose 0.0125 µM
Protocol: (§1)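 Human cancer cell lines in 384-well plates, medium with 10% serum, drug for 72 h over a 256-fold dose range (nine 2-fold or five 4-fold steps up to the top dose). Adherent lines were fixed and stained with the nucleic acid dye Syto60, suspension lines read with resazurin; signal relative to control wells, capped at 0 and 100%. One two-parameter sigmoid per drug and line, fitted in a mixed model over all curves with the slope shared within a line.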

FTI-277 = compound: COC(=O)[C@H](CCSC)NC(=O)c1ccc(NC[C@@H](N)CS)cc1-c1ccccc1 [FTI-277]; conditions: top dose 1.024 µM; top dose inferred
Protocol: as §1

SB-715992 = compound: Cc1ccc(C(=O)N(CCCN)[C@@H](c2nc3cc(Cl)ccc3c(=O)n2Cc2ccccc2)C(C)C)cc1 [SB-715992]; conditions: top dose 0.128 µM; top dose inferred
Protocol: as §1

NVP-TAE684 = compound: COc1cc(N2CCC(N3CCN(C)CC3)CC2)ccc1Nc1ncc(Cl)c(Nc2ccccc2S(=O)(=O)C(C)C)n1 [NVP-TAE684]; conditions: top dose 2 µM
Protocol: as §1

OSI-906 = compound: C[C@]1(O)C[C@@H](c2nc(-c3ccc4ccc(-c5ccccc5)nc4c3)c3c(N)nccn32)C1 [OSI-906]; conditions: top dose 2.56 µM; top dose inferred
Protocol: as §1

CGP-60474 = compound: OCCCNc1cc(-c2ccnc(Nc3cccc(Cl)c3)n2)ccn1 [CGP-60474]; conditions: top dose 0.256 µM; top dose inferred
Protocol: as §1

Belinostat = compound: O=C(/C=C/c1cccc(S(=O)(=O)Nc2ccccc2)c1)NO [Belinostat]; conditions: top dose 20 µM; top dose inferred
Protocol: as §1

YM155 = compound: COCC[n+]1c2c(n(Cc3cnccn3)c1C)C(=O)c1ccccc1C2=O [YM155]; conditions: top dose 5.12 µM
Protocol: as §1

JNJ-26854165 = compound: c1ccc2c(CCNc3ccc(Nc4ccncc4)cc3)c[nH]c2c1 [JNJ-26854165]; conditions: top dose 10 µM
Protocol: as §1

NSC-207895 = compound: CN1CCN(c2ccc([N+](=O)[O-])c3no[n+]([O-])c23)CC1 [NSC-207895]; conditions: top dose 20 µM; top dose inferred
Protocol: as §1

Cyclopamine = compound: CC1=C2C[C@H]3[C@@H](CC=C4C[C@@H](O)CC[C@@]43C)[C@@H]2CC[C@]12O[C@@H]1C[C@H](C)CN[C@H]1[C@H]2C [Cyclopamine]; conditions: top dose 16 µM; top dose inferred
Protocol: as §1

JQ1 = compound: Cc1sc2c(c1C)C(c1ccc(Cl)cc1)=N[C@@H](CC(=O)OC(C)(C)C)c1nnc(C)n1-2 [JQ1]
Protocol: as §1

JNK Inhibitor VIII = compound: CCOc1nc(NC(=O)Cc2cc(OC)ccc2OC)cc(N)c1C#N [JNK Inhibitor VIII]; conditions: top dose 10 µM; top dose inferred
Protocol: as §1

AMG-706 = compound: CC1(C)CNc2cc(NC(=O)c3cccnc3NCc3ccncc3)ccc21 [AMG-706]; conditions: top dose 2 µM; top dose inferred
Protocol: as §1

[1] = top dose 1 µM, screen: GDSC drug entry 1218, top dose inferred
[2] = top dose 2.56 µM, screen: GDSC drug entry 163

| Cell Line | AUC (Docetaxel) | IC50 (Docetaxel) | AUC (FTI-277) | IC50 (FTI-277) | AUC (SB-715992) | IC50 (SB-715992) | AUC (NVP-TAE684) | IC50 (NVP-TAE684) | AUC (OSI-906) | IC50 (OSI-906) | AUC (CGP-60474) | IC50 (CGP-60474) | AUC (Belinostat) | IC50 (Belinostat) | AUC (YM155) | IC50 (YM155) | AUC (JNJ-26854165) | IC50 (JNJ-26854165) | AUC (NSC-207895) | IC50 (NSC-207895) | AUC (Cyclopamine) | IC50 (Cyclopamine) | AUC (JQ1; [1]) | IC50 (JQ1; [1]) | AUC (JQ1; [2]) | IC50 (JQ1; [2]) | AUC (JNK Inhibitor VIII) | IC50 (JNK Inhibitor VIII) | AUC (AMG-706) | IC50 (AMG-706) |
| --- | --- | --- | --- | --- | --- | --- | --- | --- | --- | --- | --- | --- | --- | --- | --- | --- | --- | --- | --- | --- | --- | --- | --- | --- | --- | --- | --- | --- | --- | --- |
| PL-21 (acute myeloid leukaemia, suspension) | 0.863 | > 12.5 nM | 0.97 | > 1020 nM | 0.657 | 23.7 nM | 0.675 | 420 nM | 0.572 | 260 nM | 0.685 | 58 nM | 0.523 | 1460 nM | 0.271 | 63.3 nM | 0.906 | > 10 µM | 0.931 | > 20 µM | 0.979 | > 16 µM | 0.969 | > 1000 nM | 0.633 | 399 nM | – | – | – | – |
| SCC-15 (head and neck, adherent) | – | – | 0.967 | > 1020 nM | 0.938 | > 128 nM | 0.979 | > 2000 nM | 0.893 | > 2560 nM | 0.876 | > 256 nM | 0.527 | 1520 nM | 0.056 | < 20 nM | 0.98 | > 10 µM | 0.939 | > 20 µM | 0.936 | > 16 µM | 0.943 | > 1000 nM | 0.635 | 429 nM | 0.908 | > 10 µM | 0.956 | > 2000 nM |
| SK-N-FI (neuroblastoma, adherent) | 0.937 | > 12.5 nM | 0.989 | > 1020 nM | 0.865 | 112 nM | 0.903 | > 2000 nM | 0.885 | > 2560 nM | 0.905 | > 256 nM | 0.448 | 903 nM | 0.902 | > 5120 nM | – | – | 0.97 | > 20 µM | 0.99 | > 16 µM | 0.976 | > 1000 nM | 0.923 | > 2560 nM | 0.968 | > 10 µM | 0.959 | > 2000 nM |
| SR (lymphoid neoplasm, suspension) | – | – | 0.911 | > 1020 nM | 0.48 | 7.1 nM | 0.077 | < 7.81 nM | 0.959 | > 2560 nM | 0.558 | 22.6 nM | 0.043 | < 78.1 nM | 0.021 | < 20 nM | 0.711 | 2.29 µM | 0.777 | 7.2 µM | 0.843 | 9.74 µM | 0.976 | > 1000 nM | 0.846 | 1590 nM | 0.981 | > 10 µM | 0.988 | > 2000 nM |
| SU-DHL-8 (B-cell lymphoma, suspension) | – | – | 0.984 | > 1020 nM | 0.73 | 34.1 nM | 0.948 | > 2000 nM | 0.97 | > 2560 nM | 0.54 | 20.4 nM | 0.075 | < 78.1 nM | 0.022 | < 20 nM | 0.988 | > 10 µM | 0.89 | > 20 µM | 0.988 | > 16 µM | 0.984 | > 1000 nM | 0.601 | 297 nM | 0.988 | > 10 µM | 0.988 | > 2000 nM |
| SW954 (urogenital system, adherent) | – | – | 0.949 | > 1020 nM | 0.488 | 7.42 nM | 0.67 | 373 nM | 0.877 | > 2560 nM | 0.638 | 38.7 nM | 0.258 | 250 nM | 0.042 | < 20 nM | 0.841 | 7.08 µM | 0.889 | > 20 µM | 0.985 | > 16 µM | – | – | 0.573 | 254 nM | 0.923 | > 10 µM | 0.965 | > 2000 nM |
| TE-10 (oesophagus, adherent) | – | – | 0.956 | > 1020 nM | 0.555 | 11.2 nM | 0.786 | 844 nM | 0.833 | 1610 nM | 0.651 | 41.6 nM | 0.987 | > 20000 nM | 0.793 | 2290 nM | 0.911 | > 10 µM | 0.976 | > 20 µM | 0.987 | > 16 µM | 0.984 | > 1000 nM | 0.607 | 312 nM | 0.988 | > 10 µM | 0.988 | > 2000 nM |
| TUR (B-cell lymphoma, suspension) | – | – | 0.985 | > 1020 nM | 0.673 | 23.2 nM | 0.973 | > 2000 nM | 0.989 | > 2560 nM | 0.96 | > 256 nM | 0.274 | 303 nM | 0.071 | < 20 nM | 0.902 | > 10 µM | 0.948 | > 20 µM | 0.984 | > 16 µM | 0.964 | > 1000 nM | 0.861 | 1900 nM | 0.987 | > 10 µM | 0.988 | > 2000 nM |
| VA-ES-BJ (soft tissue, adherent) | 0.479 | 0.68 nM | 0.98 | > 1020 nM | 0.958 | > 128 nM | 0.849 | 1640 nM | – | – | 0.613 | 33.3 nM | 0.651 | 3350 nM | 0.031 | < 20 nM | 0.861 | 9.29 µM | 0.605 | 2.47 µM | 0.982 | > 16 µM | 0.911 | > 1000 nM | 0.706 | 634 nM | 0.967 | > 10 µM | 0.964 | > 2000 nM |
